This note sets out measurements from publication PMC12820563, “FoxP3 forms a head-to-head dimer in vivo and stabilizes its multimerization on adjacent microsatellites”.

The list shows a part of the results.

This assay addresses T1, MBP-FoxP1dN (Mus musculus, UniProt P58462 326-579).
T1 sequence: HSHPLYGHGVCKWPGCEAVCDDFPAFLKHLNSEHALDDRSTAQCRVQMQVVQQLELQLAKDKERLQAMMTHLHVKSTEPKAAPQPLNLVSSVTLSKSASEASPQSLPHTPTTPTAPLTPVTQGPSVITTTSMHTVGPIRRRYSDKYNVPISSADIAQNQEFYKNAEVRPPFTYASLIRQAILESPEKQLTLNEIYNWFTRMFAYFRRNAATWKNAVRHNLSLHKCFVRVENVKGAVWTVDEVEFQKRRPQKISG
The experiment in a line: PD-seq (MBP pull-down with sequencing); 20 mM Tris-HCl pH 7.5, 100 mM NaCl, 1.5 mM MgCl2, 0.4 uM protein, 0.1 uM dsDNA library, 30 min, room temperature, amylose pull-down; high values mean tight binding. The settings on record: protein: recombinant; tags: His6-MBP; chain copies: 2; dsDNA, one strand shown. The method in brief: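 E. coli-expressed mouse FoxP3 or FoxP1 fragment, N-terminus removed and tagged with His6-MBP, was used at 0.4 µM against 0.1 µM of a Klenow-filled degenerate double-stranded DNA library. After 30 min at room temperature in Tris pH 7.5 buffer with NaCl and MgCl2, complexes were pulled down on amylose resin and washed three times. Binding is pull-down over input reads-per-million enrichment from pooled replicates of the proteinase K-released, PCR-barcoded, Illumina-sequenced DNA.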
For “GATGATTGTTCTCCCAGCTGATGAATTCCGGAAATCGAGTAAACAAATTTTCCTAATCTTTCTGTTCAAGCGCCATCTAC”, the binding signal is 0.929 RPM ratio (pull-down/input).
As for “GATGATTGTTCTCCCAGCTGATGAATTCGGGTCCTCGAGTAAACAAATTTTCCTAATCTTTCTGTTCAAGCGCCATCTAC”, the figure is 0.771 RPM ratio (pull-down/input).
As for “GATGATTGTTCTCCCAGCTGATGAATTAAGTCCCTCGAGTAAACAAATTTTCCTAATCTTTCTGTTCAAGCGCCATCTAC”, the figure is 0.871 RPM ratio (pull-down/input); as for “GATGATTGTTCTCCCAGCTGATGAATTGGTAGGCTCGAGTAAACAAATTTTCCTAATCTTTCTGTTCAAGCGCCATCTAC”, 0.819 RPM ratio (pull-down/input).
Under “GATGATTGTTCTCCCAGCTGATGAATTGTAGAAGTCGAGTAAACAAATTTTCCTAATCTTTCTGTTCAAGCGCCATCTAC” stands 0.839 RPM ratio (pull-down/input); under “GATGATTGTTCTCCCAGCTGATGAATTTTTGTGTTCGAGTAAACAAATTTTCCTAATCTTTCTGTTCAAGCGCCATCTAC”, 1.95 RPM ratio (pull-down/input); under “GATGATTGTTCTCCCAGCTGATGAATTTATGTTCTCGAGTAAACAAATTTTCCTAATCTTTCTGTTCAAGCGCCATCTAC”, 1.33 RPM ratio (pull-down/input).
For “GATGATTGTTCTCCCAGCTGATGAATTTCAGGTGTCGAGTAAACAAATTTTCCTAATCTTTCTGTTCAAGCGCCATCTAC”, the binding signal is 0.789 RPM ratio (pull-down/input).
For the sequence “GATGATTGTTCTCCCAGCTGATGAATTAACGTTCTCGAGTAAACAAATTTTCCTAATCTTTCTGTTCAAGCGCCATCTAC”, the binding signal is 0.931 RPM ratio (pull-down/input).
Turning to “GATGATTGTTCTCCCAGCTGATGAATTTATTGACTCGAGTAAACAAATTTTCCTAATCTTTCTGTTCAAGCGCCATCTAC”, the binding signal was 1.85 RPM ratio (pull-down/input).
Turning to “GATGATTGTTCTCCCAGCTGATGAATTGGTCAGATCGAGTAAACAAATTTTCCTAATCTTTCTGTTCAAGCGCCATCTAC”, the binding signal was 0.849 RPM ratio (pull-down/input).
Under “GATGATTGTTCTCCCAGCTGATGAATTAGCCAGGTCGAGTAAACAAATTTTCCTAATCTTTCTGTTCAAGCGCCATCTAC” stands 0.814 RPM ratio (pull-down/input); under “GATGATTGTTCTCCCAGCTGATGAATTGGTGATTTCGAGTAAACAAATTTTCCTAATCTTTCTGTTCAAGCGCCATCTAC”, 1.17 RPM ratio (pull-down/input).
Turning to “GATGATTGTTCTCCCAGCTGATGAATTGGGCAATTCGAGTAAACAAATTTTCCTAATCTTTCTGTTCAAGCGCCATCTAC”, the binding signal is 0.936 RPM ratio (pull-down/input).
As for “GATGATTGTTCTCCCAGCTGATGAATTTGAATGCTCGAGTAAACAAATTTTCCTAATCTTTCTGTTCAAGCGCCATCTAC”, the figure is 1.14 RPM ratio (pull-down/input).
On to “GATGATTGTTCTCCCAGCTGATGAATTTCCTCACTCGAGTAAACAAATTTTCCTAATCTTTCTGTTCAAGCGCCATCTAC”, for which the binding signal is 0.81 RPM ratio (pull-down/input).
As for “GATGATTGTTCTCCCAGCTGATGAATTTATTAAATCGAGTAAACAAATTTTCCTAATCTTTCTGTTCAAGCGCCATCTAC”, the figure is 1.39 RPM ratio (pull-down/input); as for “GATGATTGTTCTCCCAGCTGATGAATTTCTTCCTTCGAGTAAACAAATTTTCCTAATCTTTCTGTTCAAGCGCCATCTAC”, 0.851 RPM ratio (pull-down/input); as for “GATGATTGTTCTCCCAGCTGATGAATTATTCGTTTCGAGTAAACAAATTTTCCTAATCTTTCTGTTCAAGCGCCATCTAC”, 1.01 RPM ratio (pull-down/input).
Regarding “GATGATTGTTCTCCCAGCTGATGAATTTAGTCCCTCGAGTAAACAAATTTTCCTAATCTTTCTGTTCAAGCGCCATCTAC”, the binding signal is 0.912 RPM ratio (pull-down/input).
Under “GATGATTGTTCTCCCAGCTGATGAATTGGTTCGGTCGAGTAAACAAATTTTCCTAATCTTTCTGTTCAAGCGCCATCTAC” stands 0.883 RPM ratio (pull-down/input).
In the case of “GATGATTGTTCTCCCAGCTGATGAATTGTCCCTCTCGAGTAAACAAATTTTCCTAATCTTTCTGTTCAAGCGCCATCTAC”, the binding signal was 0.967 RPM ratio (pull-down/input).
Under “GATGATTGTTCTCCCAGCTGATGAATTTGCCCAGTCGAGTAAACAAATTTTCCTAATCTTTCTGTTCAAGCGCCATCTAC” stands 0.855 RPM ratio (pull-down/input); under “GATGATTGTTCTCCCAGCTGATGAATTCGGTAGTTCGAGTAAACAAATTTTCCTAATCTTTCTGTTCAAGCGCCATCTAC”, 0.877 RPM ratio (pull-down/input); under “GATGATTGTTCTCCCAGCTGATGAATTCTGTAAGTCGAGTAAACAAATTTTCCTAATCTTTCTGTTCAAGCGCCATCTAC”, 0.922 RPM ratio (pull-down/input).
As for “GATGATTGTTCTCCCAGCTGATGAATTTATAATTTCGAGTAAACAAATTTTCCTAATCTTTCTGTTCAAGCGCCATCTAC”, the figure is 1.19 RPM ratio (pull-down/input); as for “GATGATTGTTCTCCCAGCTGATGAATTACCGATATCGAGTAAACAAATTTTCCTAATCTTTCTGTTCAAGCGCCATCTAC”, 1.02 RPM ratio (pull-down/input).
Take “GATGATTGTTCTCCCAGCTGATGAATTTGAGAGCTCGAGTAAACAAATTTTCCTAATCTTTCTGTTCAAGCGCCATCTAC”: the binding signal was 0.742 RPM ratio (pull-down/input).
As for “GATGATTGTTCTCCCAGCTGATGAATTCCTTTCATCGAGTAAACAAATTTTCCTAATCTTTCTGTTCAAGCGCCATCTAC”, the figure is 0.854 RPM ratio (pull-down/input); as for “GATGATTGTTCTCCCAGCTGATGAATTCCGTGAGTCGAGTAAACAAATTTTCCTAATCTTTCTGTTCAAGCGCCATCTAC”, 0.819 RPM ratio (pull-down/input); as for “GATGATTGTTCTCCCAGCTGATGAATTCTACAAATCGAGTAAACAAATTTTCCTAATCTTTCTGTTCAAGCGCCATCTAC”, 1.12 RPM ratio (pull-down/input).
Under “GATGATTGTTCTCCCAGCTGATGAATTCGTGGAGTCGAGTAAACAAATTTTCCTAATCTTTCTGTTCAAGCGCCATCTAC” stands 0.812 RPM ratio (pull-down/input).
